Measurements published in PMC10668032.
The list shows a part of the results. At the low end of the ranking the order means little.

Target: SIX1 homeodomain (reference allele) (UniProt Q15475)
Test: universal protein binding microarray
Conditions: Universal all-10-mer PBM (8x60K, AMADID 030236), 300 nM GST-tagged protein, Alexa Fluor 488 anti-GST; buffer, salt, pH and temperature not stated; high values mean tight binding; most listed sequences are background and not binding sites; double strand, one strand shown

Row | Sequence | binding signal [E-score]
1 | ACACGGAG | -0.00357
2 | AACCGCGA | 0.0972
3 | AGCTCCTG | -0.134
4 | AATGAGTC | -0.0364
5 | AAGCAAGA | -0.228
6 | ACAAAAAT | -0.141
7 | ACCCAATG | -0.0245
8 | AGTAGAAT | -0.0541
9 | AGATAGTC | 0.172
10 | GGACCGTA | -0.164
11 | TCCCCCAA | 0.0285
12 | AACGGCTG | -0.179
13 | ACTGTAAC | -0.121
14 | CTGTGGAA | -0.146
15 | CCAGGGAC | -0.19
16 | AACTTTGA | -0.201
17 | CCGATAAG | -0.0758
18 | GCTAAGAA | -0.0737
19 | ATATGGAT | 0.371
20 | AGGCAGCA | -0.211
21 | AAGACTCG | -0.253
22 | AAGTTTAT | -0.177

Row | Sequence | binding signal [E-score]
23 | GATGTGGC | -0.113
24 | ATTCCGAA | -0.0396
25 | CATATGGC | 0.0938
26 | CGAGTATA | 0.29
27 | CGACGCCG | -0.00713
28 | AGAGTTAT | 0.0447
29 | AAGAACGG | -0.00726
30 | AAGATGGC | -0.202
31 | AACCTGAA | -0.242
32 | GCCTACCA | -0.22
33 | CATTCTAA | -0.0323
34 | GGCGGACC | -0.142
35 | CGAAAGAA | -0.207
36 | CAAGTTAC | -0.0658
37 | ACCCAACA | 0.079
38 | TCGCCCGA | -0.184
39 | CCACGTGA | -0.103
40 | GTACGACA | -0.0887
41 | AAGCAGCA | -0.2
42 | CCTAGATC | 0.228
43 | CGTCAATC | -0.0216
44 | GGCATCCA | -0.00015

Row | Sequence | binding signal [E-score]
45 | CGGCCAAC | -0.0229
46 | CCGACACG | 0.0696
47 | GAGTGGGA | 0.045
48 | AAGGCGGG | -0.0477
49 | GCGTGTAC | 0.0568
50 | CAATCTTC | 0.0677
51 | GTGGACAA | -0.0874
52 | CCCTGAAG | -0.0367
53 | TACAGCTA | 0.0416
54 | AACTGTCA | -0.21
55 | AGCTATGG | -0.142
56 | CCGTCGTC | -0.128
57 | AAGTGTCG | -0.0902
58 | CGACGTAG | -0.106
59 | CAGAATGG | -0.102
60 | CATAAGTA | 0.00456
61 | AACTTTTA | -0.285
62 | ATTCTGCG | -0.0215
63 | CCGTTCTA | 0.0126
64 | GAGCAAGC | -0.241
65 | ATATGTGG | 0.209
66 | TCCCTGCA | -0.132

Row | Sequence | binding signal [E-score]
67 | AATTGACG | -0.266
68 | AGAATCCG | 0.163
69 | AGGTTAAT | -0.155
70 | GAAGTGCC | -0.304
71 | CCCCATCC | 0.102
72 | ACGATTGA | -0.137
73 | CGTTAGCC | -0.0912
74 | ACTTGCAC | -0.0381
75 | CGCAGTAA | -0.268
76 | ATGGTCGC | -0.192
77 | AATGCATT | -0.28
78 | CGTAAGTA | 0.0132
79 | CCAACCGC | -0.0414
80 | CTGATCTA | 0.257
81 | ATGTTATG | -0.0688
82 | ATGGGAAT | -0.0522
83 | CCACAGCA | 0.0921
84 | CGATGCTC | -0.0964
85 | ACTGCTCG | -0.0475
86 | GCCCTAAC | -0.191
